# PMC6919601, “Identification of Plasmodium dipeptidyl aminopeptidase allosteric inhibitors by high throughput screening” (PLoS ONE, 2019)
# Out of some 110,000 compounds screened, about 230 (0.21%) showed an effect of 50% or more. This is one part of the list.
# Molecular target: DPAP1 (Plasmodium falciparum, UniProt Q8IIJ9)
# Assay: primary screen, percent inhibition; read by cleavage of a fluorogenic dipeptide substrate; higher = more effect of the substance
# Parameters: species or system P. falciparum D10 trophozoite lysates; single well
# 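Note: 30 min substrate incubation versus DMSO and 10 µM JCP410 controls.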
# Chain of DPAP1 (Q8IIJ9 whole entry, looked up): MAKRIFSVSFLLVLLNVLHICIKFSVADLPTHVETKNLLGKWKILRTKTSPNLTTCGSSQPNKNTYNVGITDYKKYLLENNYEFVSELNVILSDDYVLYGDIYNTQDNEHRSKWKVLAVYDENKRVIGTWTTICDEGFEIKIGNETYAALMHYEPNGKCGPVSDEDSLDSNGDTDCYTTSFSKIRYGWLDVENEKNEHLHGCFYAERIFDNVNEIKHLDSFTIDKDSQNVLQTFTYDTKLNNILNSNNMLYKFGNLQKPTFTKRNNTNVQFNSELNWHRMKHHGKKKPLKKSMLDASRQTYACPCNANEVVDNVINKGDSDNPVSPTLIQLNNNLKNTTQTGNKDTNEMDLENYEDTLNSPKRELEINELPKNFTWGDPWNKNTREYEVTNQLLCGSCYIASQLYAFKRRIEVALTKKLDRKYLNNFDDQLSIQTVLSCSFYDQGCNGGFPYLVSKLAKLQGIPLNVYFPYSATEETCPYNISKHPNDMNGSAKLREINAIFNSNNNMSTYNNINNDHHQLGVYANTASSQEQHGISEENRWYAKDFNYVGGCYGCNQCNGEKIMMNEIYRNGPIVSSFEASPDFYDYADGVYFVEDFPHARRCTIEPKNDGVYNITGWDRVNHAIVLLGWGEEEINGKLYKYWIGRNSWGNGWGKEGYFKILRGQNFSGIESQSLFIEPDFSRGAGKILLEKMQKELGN
row,Compound,% Inhibition @ 10 uM [%]
1,CC(C)C[C@H](NC(=O)C1CCNCC1)C(=O)N[C@@H](CCc1ccccc1)C(=O)COC(=O)c1cc(Cl)ccc1Cl,-7.58
2,COc1ccc(-c2nn(C)c3sc(C(=O)N4CCN(C5CCCCC5)CC4)cc23)cc1OC,4.51
3,O=c1c2ccccc2nc(CNCc2ccco2)n1-c1ccc(F)cc1,1.94
4,CCN(CC)C(=O)C1CCCN(Cc2cccc(OC)c2)C1 (stereo not drawn),1.48
5,CN1C(=O)/C(=C/c2cccs2)S/C1=N/c1ccc(Cl)c(C(=O)O)c1,0.695
6,Cc1ccc(NC(=O)CSc2nc3ccc(N)cc3s2)cc1Cl,0.726
7,Cc1ccc(CSCc2ccc(C(=O)NCC3CCCO3)o2)cc1 (stereo not drawn),4.81
8,CCN(CC)S(=O)(=O)c1cccc(C(=O)Nc2ccccn2)c1,-3.66
9,CCCN1CCC(NCCN2CCCCC2)CC1,2.1
10,CCOC(=O)C1=C(C)N=c2s/c(=C\c3cc(Cl)cc(Cl)c3O)c(=O)n2C1c1ccccc1 (stereo not drawn),26.9
11,Cc1ccc(-n2nc3c(=O)n(CCCC(=O)NCC(C)c4ccccc4)nc(C)c3c2C)cc1 (stereo not drawn),-2.31
12,O=C(Nc1cccnc1)c1cc2n(n1)C(C(F)(F)F)CC(c1ccc(Br)cc1)N2 (stereo not drawn),2.99
13,CC(C)Nc1nc2c(S(=O)(=O)c3ccccc3)nnn2c2ccc(Cl)cc12,-1.37
14,O=C(CCCn1c(=O)c2sccc2n(CC(=O)NCC2CCCO2)c1=O)NCc1ccco1 (stereo not drawn),-7.15
15,Cc1ccccc1-c1nnn(Cc2ccc(Cl)cc2Cl)n1,6.22
16,COc1ccc(OC)c(CN2CCN(C(=O)C(c3ccccc3)c3ccccc3)CC2)c1,5.6
17,COc1ccc(N2CCN(S(=O)(=O)c3ccc(OC)c(C)c3)CC2)cc1,-1.02
18,CCN(CC)CCNC(=O)c1sc2nc(C)nc(N3CCCCC3)c2c1C,4.35
19,Fc1ccccc1C1CC(c2ccc(Br)cc2)=NN1c1ccccc1Cl (stereo not drawn),-9.6
20,CCN(CC)CCCCOc1ccc(C)cc1C,1.83
21,Cc1nc(S(=O)(=O)NCc2ccccc2Cl)c(C#N)c(C)c1Cl,-3.04
22,CCCCN(CCCC)C(=O)Cc1c(O)nc2ccccc2c1O,0.219
23,O=C1c2ccccc2C(=O)N1CC(=O)n1nc(-c2cccnc2)nc1NCc1cccs1,2.21
24,O=c1ccc2c(o1)/C(=C\C=C(Cl)Cl)CC2,3.34
25,CCOCCCNC(=O)Cn1ncc2c3ccccc3n(Cc3ccccc3F)c2c1=O,0.137

row,Compound,% Inhibition @ 10 uM [%]
1,CCCCCC(=O)Nc1nc2ccccc2[nH]1,3.05
2,Oc1ccccc1CN(Cc1ccccc1)Cc1ccccc1,-3.96
3,O=C(NCCN1CCOCC1)c1ccc(CNC(=O)c2cccc(Br)c2)cc1,2.9
4,CCN(CC)C(=O)Cn1cnc2c1c(=O)n(C)c(=O)n2C,6.24
5,CCC(=O)Nc1nc2nccc(C)n2n1,-1.31
6,C=CCN1C(=O)C(O)(CC(=O)c2cccs2)c2ccccc21 (stereo not drawn),1.52
7,CCOc1ccc(CCNC(=O)Cn2nc(-c3ccc(Cl)cc3)ccc2=O)cc1OCC,-1.79
8,CCOc1ccccc1C(=O)Nc1ccccc1C(C)C,-2.22
9,CC1(C)CCCN(Cc2c(O)ccc3c(O)c(-c4nc5ccccc5s4)c(=N)oc23)C1,11.3
10,O=C(/C=C1\NCC2c3ccccc3CCN2C1=O)c1ccccc1 (stereo not drawn),-2.45
11,CC(C)C[C@H](NC(=O)OCc1ccccc1)C(=O)N[C@H](C#N)CC(=O)OCc1ccccc1,14.7
12,CCOC(=O)N1CCN(C(=O)Cn2ncc3c2-c2ccccc2OC3)CC1,3.32
13,CC(C)Sc1oc(-c2cccs2)nc1S(=O)(=O)c1ccc(F)cc1,-0.58
14,COc1cccc(-c2cc(C(=O)N3CC=C(c4ccccc4)CC3)[nH]n2)c1,12.6
15,CC(C)C(=O)n1nc(-c2ccco2)nc1NCc1cccs1,-3.24
16,COc1ccc(N2C(=O)/C(=C\c3ccc[nH]3)C(=O)NC2=S)cc1,-2.48
17,CC(C)C[C@H](NC(=O)C1c2ccccc2Oc2ccccc21)C(=O)NCC#N,-0.207
18,CCN(Cc1ccccc1)C1CCN(Cc2ccccc2)CC1,-2.18
19,CC(=O)Nc1ccc(S(=O)(=O)N[C@@H](CC(C)C)C(=O)NCC#N)cc1,0.174
20,O=C1c2ccccc2[C@@H]2[C@H]3CCCC[C@]3(O)CCN12,-1.8
21,COc1ccc(Nc2ccc(C(=O)O)cc2[N+](=O)[O-])cc1,-0.0372
22,Cc1cc(C)nc(SCC(=O)Nc2nc3c(s2)C(=O)CC(C)(C)C3)n1,3.86
23,NS(=O)(=O)c1ccc(CCNC(=O)CCCCCn2c(=O)[nH]c3ccsc3c2=O)cc1,-2.49
24,Cc1cc(Cl)ccc1N1C(=O)C2C3C=CC(C3)C2C1=O (stereo not drawn),-4.13
25,COc1ccc(C=C(C#N)C#N)c(OC)c1OC,0.0345

row,Compound,% Inhibition @ 10 uM [%]
1,CC(C)(C)C(=O)NC(=S)Nc1ccc(Br)cc1,1.43
2,N#CC1=C(N)OC2=C(C(=O)CC(c3ccco3)C2)C1c1ccc(OCc2ccccc2F)cc1 (stereo not drawn),2.32
3,CC(C)c1cc(C(C)C)c(S(=O)(=O)N2CCN(C/C=C/c3ccccc3)CC2)c(C(C)C)c1,4.57
4,O=C1c2ccccc2NC(c2ccc(Br)cc2)N1c1ccc(Br)cc1 (stereo not drawn),-1.5
5,COc1ccc(C2OC(=O)CC2C(=O)NCc2ccc(C)cc2)cc1OC (stereo not drawn),-4.69
6,Cn1c(=O)c2ncn(CC(=O)Nc3nc(-c4ccc(Cl)cc4)cs3)c2n(C)c1=O,11.1
7,Cc1noc(NS(=O)(=O)c2ccc(N3C(=O)c4ccccc4C3=O)cc2)c1C,5.26
8,O=C(NCCc1ccc2c(c1)OCO2)c1cccc2ccccc12,-3.37
9,O=C(NCCc1ccc(Cl)cc1)C1CCCN(c2nc3ccccc3n3cccc23)C1 (stereo not drawn),7.34
10,COc1cccc(C2CC(=O)Nc3c2ccc2ccccc32)c1OC (stereo not drawn),-3.09
11,COc1ccc(C2C3C(=NN2C(C)=O)C2CCN3CC2)cc1 (stereo not drawn),-0.902
12,CN(C)c1ccc(-c2c(C#N)c(S)nc3c2C(=O)CC(C)(C)C3)cc1,-2.81
13,CC(C)(C)OC(=O)N[C@@H](Cc1cc(I)cc(I)c1)C(=O)NCC#N,1.7
14,CC(C)C1Oc2cc3oc(=O)ccc3cc2C1=O (stereo not drawn),2.13
15,CS(=O)(=O)N(CCc1ccccc1)CC(=O)Nc1ccccc1,-0.318
16,CCOc1ccc(C(=O)Nc2ccc(N3CCN(C)CC3)cc2)cc1Br,6.1
17,COc1ccc(/C=C/C(=O)NC(c2ccccc2)c2ccccc2)cc1,-4.5
18,CC1(C)CC(CCN2C(=O)CCC2=O)(Cc2ccccc2)CCO1 (stereo not drawn),0.343
19,CCOc1ccc(CNC(=O)CN(C)c2nn3c(=O)cc(C)nc3s2)cc1,-3.79
20,N#CC1=C(N)OC2=C(C(=O)CCC2)C1c1ccc(Br)s1 (stereo not drawn),-2
21,Cc1ccc(/C=C/c2nc(-c3c(F)cccc3F)no2)cc1,-4.49
22,O=C(NC1(C(F)(F)F)N=C(c2ccccc2)N(C2CCCCC2)C1=O)c1ccco1 (stereo not drawn),17.8
23,COc1ccc(CCNC(=O)c2cccnc2Cl)cc1OC,2.13
24,COc1ccc(CN2CCCCCC2)cc1Br,4.81
25,Cc1ccc(C(=O)N(Cc2ccccc2F)C2CCS(=O)(=O)C2)cc1 (stereo not drawn),-1.35

row,Compound,% Inhibition @ 10 uM [%]
1,CCN1C(=O)NC(c2ccccc2)(c2ccccc2)C1=O,-2.44
2,CCN1CCN(Cc2cc(Br)ccc2O)CC1,-1.78
3,Cc1ccc(NC(=O)OC2CCCCC2)cc1NC(=O)NCCO,3.25
4,Cc1ccc(Cl)cc1N1C(=O)CC(N2CCN(c3ccccc3)CC2)C1=O (stereo not drawn),-2.98
5,O=C(Nc1ccc2c(c1)oc1ccccc12)c1ccc(Cl)cc1Cl,-2.91
6,CC(C)C[C@H](NC(=O)C1CCNCC1)C(=O)N[C@@H](CCc1ccccc1)C(=O)C[N+](=O)[O-],-2.35
7,CCc1cc(=O)oc2cc3occ(-c4cccc(OC)c4)c3cc12,2.21
8,CC(C)C[C@H](NC(=O)c1cc(-c2ccco2)cc(-c2ccco2)c1)C(=O)NCC#N,-8.26
9,CCc1noc(C)c1C(=O)Nc1nc(-c2cccc(Cl)c2)c(C)s1,3.94
10,O=C(c1ccncc1)N1CCN(Cc2cccc(Br)c2)CC1,-3.97
11,CC[n+]1ccc2ccc(C)cc2c1S(=O)(=O)O,2.1
12,COc1ccc(NC(=O)Nc2ccc(Cc3ccncc3)cc2)cc1OC,5.24
13,Cc1cc(C)n(-c2nc3ccccc3[nH]2)n1,6.01
14,CCSc1nn2c(=O)c(Cc3ccccc3)nnc2s1,-4.42
15,CCOc1ccc(Cc2nc(-c3ccc(Br)o3)no2)cc1OCC,-4.49
16,CC(C)(C)c1ccc(C(=O)O/N=C(\N)c2nonc2N)cc1,-0.597
17,O=C1c2cccc3cccc(c23)C(=O)N1CC1CCNCC1,14.6
18,O=C(Cn1c2ccccc2c2cnnc(O)c21)NCCC1=CCCCC1,-3.79
19,CC(C)NC(=O)/C=C/c1ccc(Cl)cc1,-2.12
20,OCCC1CCCCN1Cc1ccc(Cl)c(Cl)c1 (stereo not drawn),-2.36
21,CCOC(=O)N1CCN(S(=O)(=O)N2CCCC(C(=O)NCc3ccco3)C2)CC1 (stereo not drawn),-3.12
22,COc1ccc(CNC(=O)CCS(=O)(=O)Cc2cccc(Cl)c2)c(OC)c1,-2.99
23,Cc1ccccc1N1CCN(Cc2cc([N+](=O)[O-])ccc2Cl)CC1,1.63
24,CCOc1cc(CNC(=O)C2CCN(c3nnc(-n4cccc4)s3)CC2)cc(OCC)c1OCC,-10
